# US20250376529A1 (Amgen, published 2025)
# T1: Rhesus GIPR (rhesus, UniProt F7E1R9 22-466)
# T1 sequence: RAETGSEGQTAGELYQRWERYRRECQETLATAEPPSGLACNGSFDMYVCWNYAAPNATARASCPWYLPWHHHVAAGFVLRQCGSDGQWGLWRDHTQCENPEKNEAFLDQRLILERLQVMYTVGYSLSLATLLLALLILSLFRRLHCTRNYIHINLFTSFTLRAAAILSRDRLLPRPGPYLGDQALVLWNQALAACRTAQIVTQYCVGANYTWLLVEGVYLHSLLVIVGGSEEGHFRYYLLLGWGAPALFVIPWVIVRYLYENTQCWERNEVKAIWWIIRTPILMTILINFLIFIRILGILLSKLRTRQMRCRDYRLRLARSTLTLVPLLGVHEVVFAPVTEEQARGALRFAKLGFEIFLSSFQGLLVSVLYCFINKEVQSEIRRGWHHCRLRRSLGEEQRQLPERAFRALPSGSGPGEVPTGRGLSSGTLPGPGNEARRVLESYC
# Biological target: T1, Rhesus GIPR
# Assay: cell-based or functional assay
row,Binder,Rhesus GIPR CAMP Assay (Conc. mAb @ 60% Inhibition in nM) [nM]
1,"5C2.012 (antibody, human IgG1, kappa, N297G) heavy: QVPLVQSGAEVKKPGASVKVSCKASGYTFTGYYIHWVRQAPGQGLEWMGWINPDSGGTDYSQRFQGRVTMTRDTSISTAYMELNRLRSDDTAVYYCAREATIFGMVIVPFDYWGQGTLVTVSSASTKGPSVFPLAPSSKSTSGGTAALGCLVKDYFPEPVTVSWNSGALTSGVHTFPAVLQSSGLYSLSSVVTVPSSSLGTQTYICNVNHKPSNTKVDKKV[human IgG1 Fc with R292C N297G V302C (EU numbers) not written out] light: DIVMTQSPDSLAVSLGERATINCKSSQSVLSSSNNKNYIAWYQQQPGHPPKLLIYWASTRESGVPDRFSGSGSGTDFTLTISSLQAEDVAVFYCQQYYSTPWTFGQGTKVEIKRTVAAPSVFIFPPSDEQLKSGTASVVCLLNNFYPREAKVQWKVDNALQSGNSQESVTEQDSKDSTYSLSSTLTLSKADYEKHKVYACEVTHQGLSSPVTKSFNRGEC",0.65
2,"6A5.004.001 (antibody, human IgG1, kappa, N297G) heavy: QVQLVESGGGVVQPGRSLRLSCAASGFSFSSYGMHWVRQPPGKGLEWVAAIWYDANNKYYADAVKGRFTISRDSSKNTLYLQMNSLRAEDTAVYYCARDRTIFGVVLEYWGQGTLVTVSSASTKGPSVFPLAPSSKSTSGGTAALGCLVKDYFPEPVTVSWNSGALTSGVHTFPAVLQSSGLYSLSSVVTVPSSSLGTQTYICNVNHKPSNTKVDKKV[human IgG1 Fc with R292C N297G V302C (EU numbers) not written out] light: DIQMTQSPSSLSASVGDRVTITCQASQDITNYLNWYQQKPGKAPKLLIYDASNLEPGVPSRFSGSGSGTDFTLTISSLQPEDFATYYCQQYDDLFTFGPGTKVDIKRTVAAPSVFIFPPSDEQLKSGTASVVCLLNNFYPREAKVQWKVDNALQSGNSQESVTEQDSKDSTYSLSSTLTLSKADYEKHKVYACEVTHQGLSSPVTKSFNRGEC",0.9
3,"6A5.004.005 (antibody, human IgG1, kappa, N297G) heavy: QVQLVESGGGVVQPGRSLRLSCAASGFSFSSYGMHWVRQPPGKGLEWVAAIWYDANNKYYADAVKGRFTISRDSSKNTLYLQMNSLRAEDTAVYYCARDRTIFGVVLEYLGQGTLVTVSSASTKGPSVFPLAPSSKSTSGGTAALGCLVKDYFPEPVTVSWNSGALTSGVHTFPAVLQSSGLYSLSSVVTVPSSSLGTQTYICNVNHKPSNTKVDKKV[human IgG1 Fc with R292C N297G V302C (EU numbers) not written out] light: DIQMTQSPSSLSASVGDRVTITCQASQDITNYLNWYQQKPGKAPKLLIYDASNLEPGVPSRFSGSGSGTDFTLTISSLQPEDIATYYCQQYDDLFTFGPGTKVDIKRTVAAPSVFIFPPSDEQLKSGTASVVCLLNNFYPREAKVQWKVDNALQSGNSQESVTEQDSKDSTYSLSSTLTLSKADYEKHKVYACEVTHQGLSSPVTKSFNRGEC",0.62
4,"6A5.004.006 (antibody, human IgG1, kappa, N297G) heavy: QVQLVESGGGVVQPGRSLRLSCAASGFSFSSYGMHWVRQPPGKGLEWVAAIWYDANNKYYADAVKGRFTISRDSSKNTLYLQMNSLRAEDTAVYYCARDRTIFGVVLEYLGQGTLVTVSSASTKGPSVFPLAPSSKSTSGGTAALGCLVKDYFPEPVTVSWNSGALTSGVHTFPAVLQSSGLYSLSSVVTVPSSSLGTQTYICNVNHKPSNTKVDKKV[human IgG1 Fc with R292C N297G V302C (EU numbers) not written out] light: DIQMTQSPSSLSASVGDRVTITCQASQDITNYLNWYQQKPGKAPKLLIYDASNLEPGVPSRFSGSGSGTDFTFTISSLQPEDFATYYCQQYDDLFTFGPGTKVDIKRTVAAPSVFIFPPSDEQLKSGTASVVCLLNNFYPREAKVQWKVDNALQSGNSQESVTEQDSKDSTYSLSSTLTLSKADYEKHKVYACEVTHQGLSSPVTKSFNRGEC",0.77
5,"6A5.004.003 (antibody, human IgG1, kappa, N297G) heavy: QVQLVESGGGVVQPGRSLRLSCAASGFSFSSYGMHWVRQPPGKGLEWVAAIWYDANNKYYADAVKGRFTISRDSSKNTLYLQMNSLRAEDTAVYYCARDRTIFGVVLEYLGQGTLVTVSSASTKGPSVFPLAPSSKSTSGGTAALGCLVKDYFPEPVTVSWNSGALTSGVHTFPAVLQSSGLYSLSSVVTVPSSSLGTQTYICNVNHKPSNTKVDKKV[human IgG1 Fc with R292C N297G V302C (EU numbers) not written out] light: DIQMTQSPSSLSASVGDRVTITCQASQDITNYLNWYQQKPGKAPKLLIYDASNLEPGVPSRFSGSGSGTDFTLTISSLQPEDFATYYCQQYDDLFTFGPGTKVDIKRTVAAPSVFIFPPSDEQLKSGTASVVCLLNNFYPREAKVQWKVDNALQSGNSQESVTEQDSKDSTYSLSSTLTLSKADYEKHKVYACEVTHQGLSSPVTKSFNRGEC",0.78

# Further lines, results first:
row,Rhesus GIPR CAMP Assay (Conc. mAb @ 60% Inhibition in nM) [nM],Binder
1,0.53,"5C2 (antibody, human IgG1, kappa, N297G) heavy: QVPLVQSGAEVKKPGASVKVSCKASGYTFTGYYIHWVRQAPGQGLEWMGWINPDSGGTDYSQRFQGRFTMTRDTSISTAYMELNRLRSDDTAVYYCAREATIFGMVIVPFDYWGQGTLVTVSSASTKGPSVFPLAPSSKSTSGGTAALGCLVKDYFPEPVTVSWNSGALTSGVHTFPAVLQSSGLYSLSSVVTVPSSSLGTQTYICNVNHKPSNTKVDKKV[human IgG1 Fc with R292C N297G V302C (EU numbers) not written out] light: DIVMTQSPDSLAVSLGERATINCKSSQSVLSSSNNKNYIAWYQQQPGHPPKLLIYWASTRESGVPDRFSGSGSGTDFTLTISSLQAEDVAVFYCQQYYSTPWTFGQGTKVEIKRTVAAPSVFIFPPSDEQLKSGTASVVCLLNNFYPREAKVQWKVDNALQSGNSQESVTEQDSKDSTYSLSSTLTLSKADYEKHKVYACEVTHQGLSSPVTKSFNRGEC"
2,0.6,"5C2.009 (antibody, human IgG1, kappa, N297G) heavy: QVPLVQSGAEVKKPGASVKVSCKASGYTFTGYYIHWVRQAPGQGLEWMGWINPDAGGTDYSQRFQGRFTMTRDTSISTAYMELNRLRSDDTAVYYCAREATIFGMVIVPFDYWGQGTLVTVSSASTKGPSVFPLAPSSKSTSGGTAALGCLVKDYFPEPVTVSWNSGALTSGVHTFPAVLQSSGLYSLSSVVTVPSSSLGTQTYICNVNHKPSNTKVDKKV[human IgG1 Fc with R292C N297G V302C (EU numbers) not written out] light: DIVMTQSPDSLAVSLGERATINCKSSQSVLSSSNNKNYIAWYQQQPGHPPKLLIYWASTRESGVPDRFSGSGSGTDFTLTISSLQAEDVAVFYCQQYYSTPWTFGQGTKVEIKRTVAAPSVFIFPPSDEQLKSGTASVVCLLNNFYPREAKVQWKVDNALQSGNSQESVTEQDSKDSTYSLSSTLTLSKADYEKHKVYACEVTHQGLSSPVTKSFNRGEC"
3,0.81,"6A5.004.010 (antibody, human IgG1, kappa, N297G) heavy: QVQLVESGGGVVQPGRSLRLSCAASGFSFSSYGMHWVRQPPGKGLEWVAAIWYDANNKYYADAVKGRFTISRDSSKNTLYLQMNSLRAEDTAVYYCARDRTIFGVVLEYWGQGTLVTVSSASTKGPSVFPLAPSSKSTSGGTAALGCLVKDYFPEPVTVSWNSGALTSGVHTFPAVLQSSGLYSLSSVVTVPSSSLGTQTYICNVNHKPSNTKVDKKV[human IgG1 Fc with R292C N297G V302C (EU numbers) not written out] light: DIQMTQSPSSLSASVGDRVTITCQASQDITNYLNWYQQKPGKAPKLLIYDASNLEPGVPSRFSGSGSGTDFTLTISSLQPEDFATYYCQQYDDLFTFGQGTKVDIKRTVAAPSVFIFPPSDEQLKSGTASVVCLLNNFYPREAKVQWKVDNALQSGNSQESVTEQDSKDSTYSLSSTLTLSKADYEKHKVYACEVTHQGLSSPVTKSFNRGEC"
4,0.88,"6A5.004.002 (antibody, human IgG1, kappa, N297G) heavy: QVQLVESGGGVVQPGRSLRLSCAASGFSFSSYGMHWVRQPPGKGLEWVAAIWYDANNKYYADAVKGRFTISRDSSKNTLYLQMNSLRAEDTAVYYCARDRTIFGVVLEYWGQGTLVTVSSASTKGPSVFPLAPSSKSTSGGTAALGCLVKDYFPEPVTVSWNSGALTSGVHTFPAVLQSSGLYSLSSVVTVPSSSLGTQTYICNVNHKPSNTKVDKKV[human IgG1 Fc with R292C N297G V302C (EU numbers) not written out] light: DIQMTQSPSSLSASVGDRVTITCQASQDITNYLNWYQQKPGKAPKLLIYDASNLEPGVPSRFSGSGSGTDFTLTISSLQPEDIATYYCQQYDDLFTFGPGTKVDIKRTVAAPSVFIFPPSDEQLKSGTASVVCLLNNFYPREAKVQWKVDNALQSGNSQESVTEQDSKDSTYSLSSTLTLSKADYEKHKVYACEVTHQGLSSPVTKSFNRGEC"
5,0.97,"6A5.004.004 (antibody, human IgG1, kappa, N297G) heavy: QVQLVESGGGVVQPGRSLRLSCAASGFSFSSYGMHWVRQPPGKGLEWVAAIWYDANNKYYADAVKGRFTISRDSSKNTLYLQMNSLRAEDTAVYYCARDRTIFGVVLEYWGQGTLVTVSSASTKGPSVFPLAPSSKSTSGGTAALGCLVKDYFPEPVTVSWNSGALTSGVHTFPAVLQSSGLYSLSSVVTVPSSSLGTQTYICNVNHKPSNTKVDKKV[human IgG1 Fc with R292C N297G V302C (EU numbers) not written out] light: DIQMTQSPSSLSASVGDRVTITCQASQDITNYLNWYQQKPGKAPKLLIYDASNLEPGVPSRFSGSGSGTDFTFTISSLQPEDFATYYCQQYDDLFTFGPGTKVDIKRTVAAPSVFIFPPSDEQLKSGTASVVCLLNNFYPREAKVQWKVDNALQSGNSQESVTEQDSKDSTYSLSSTLTLSKADYEKHKVYACEVTHQGLSSPVTKSFNRGEC"
